# Source: paper PMC4336329 (PLoS ONE, 2015)
# Screen size: about 310,000 compounds; about 14,000 (4.5%) showed an effect of 50% or more. Effects have a minus sign here. The list shows a part of the results.
# Molecular target: human ether-à-go-go-related gene (hERG) potassium channel (human, UniProt Q12809)
# Assay: primary screen, population patch clamp on CHO cells stably expressing hERG
# 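Also: peak tail current of the secondary pulse compared with the same well before compound.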
# human ether-à-go-go-related gene (hERG) potassium channel, sequence (Q12809 whole entry, looked up): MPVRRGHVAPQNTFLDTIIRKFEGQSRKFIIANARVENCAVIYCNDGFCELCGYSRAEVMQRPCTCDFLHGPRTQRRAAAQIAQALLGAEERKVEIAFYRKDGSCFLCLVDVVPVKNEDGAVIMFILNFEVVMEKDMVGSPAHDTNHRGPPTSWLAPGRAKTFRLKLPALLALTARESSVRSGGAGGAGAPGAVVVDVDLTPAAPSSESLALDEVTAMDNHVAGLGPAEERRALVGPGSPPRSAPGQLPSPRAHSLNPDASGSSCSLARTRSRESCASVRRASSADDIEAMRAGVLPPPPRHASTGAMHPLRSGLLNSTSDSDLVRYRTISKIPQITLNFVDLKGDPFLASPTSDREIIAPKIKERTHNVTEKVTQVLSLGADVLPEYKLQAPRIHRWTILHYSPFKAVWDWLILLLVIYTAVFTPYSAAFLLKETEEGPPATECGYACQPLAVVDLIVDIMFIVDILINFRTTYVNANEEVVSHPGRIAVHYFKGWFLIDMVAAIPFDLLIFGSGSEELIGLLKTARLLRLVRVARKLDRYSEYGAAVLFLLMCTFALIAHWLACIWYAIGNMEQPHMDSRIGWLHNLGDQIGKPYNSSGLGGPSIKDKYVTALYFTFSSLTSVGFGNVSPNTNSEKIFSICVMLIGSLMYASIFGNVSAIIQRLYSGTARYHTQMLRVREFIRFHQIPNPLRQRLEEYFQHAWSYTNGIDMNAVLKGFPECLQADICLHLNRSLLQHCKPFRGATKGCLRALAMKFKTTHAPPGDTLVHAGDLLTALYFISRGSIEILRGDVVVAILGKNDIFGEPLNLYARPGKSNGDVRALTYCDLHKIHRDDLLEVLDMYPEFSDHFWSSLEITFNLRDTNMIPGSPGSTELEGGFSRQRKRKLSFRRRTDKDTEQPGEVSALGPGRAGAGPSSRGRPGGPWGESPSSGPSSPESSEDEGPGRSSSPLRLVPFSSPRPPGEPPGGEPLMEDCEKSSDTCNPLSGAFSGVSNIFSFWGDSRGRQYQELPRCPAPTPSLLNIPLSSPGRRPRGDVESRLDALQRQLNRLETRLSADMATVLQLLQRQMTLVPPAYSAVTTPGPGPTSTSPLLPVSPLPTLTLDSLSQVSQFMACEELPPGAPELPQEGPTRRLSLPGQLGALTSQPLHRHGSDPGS
row,SMILES,"hERG current change (%, negative = inhibition) at 10uM"
1,COc1cc(C(=O)NNC(=O)c2cc(-c3ccccc3)n[nH]2)cc(OC)c1C,-3.32%
2,COc1ccc(N2C(=O)CC(SC(C)C)C2=O)cc1 (centres unmarked),3.98%
3,Cc1ccc2c(c1)N(C(=O)CCC(=O)NCCCN1CCN(C)CC1)CC(C)O2 (centres unmarked),9.95%
4,CCCNc1c(N)n(-c2ccccc2)c(=O)[nH]c1=O,6.25%
5,CCOc1ccc(C(=O)COC(=O)CNC(=O)C2CCCCC2)cc1,-0.0501%
6,CCc1cc(C(=O)N(Cc2ccccc2)c2c(N)n(CCOC)c(=O)[nH]c2=O)sc1C,-0.171%
7,CSCCC(NC(=O)COc1ccccc1)C(=O)N(C)Cc1ccc(F)cc1 (centres unmarked),-50.3%
8,COCCN(C(=O)COC(=O)/C=C/c1ccco1)c1c(N)n(Cc2ccccc2)c(=O)[nH]c1=O,12.2%
9,CCC1(CCCC(=O)c2ccc(F)cc2)C(=O)NC(=S)NC1=O,-3.66%
10,CCOC(=O)CNC(=O)N1CCC(CCC(=O)N(C)Cc2ccccc2)CC1,9.99%
11,CNc1c(NS(=O)(=O)c2cc(OC)ccc2OC)c(=O)oc2ccccc12,10.3%
12,CC(CC1C(C#N)=C(N)SC(N)=C1C#N)c1ccccc1 (centres unmarked),1.38%
13,CCN(CC)c1ccc(NC(=O)C2CCC(CNc3c(N4CCCC4)c(=O)c3=O)CC2)c(C)c1 (centres unmarked),18.5%
14,CN=c1scc(C)n1/N=C/c1ccc(O)c(O)c1O,23.8%
15,Cc1ccc(OCCC(=O)N(Cc2ccccc2)c2c(N)n(Cc3ccccc3)c(=O)[nH]c2=O)cc1,-6.6%
16,Cc1ncc(CO)c2cc(C(=O)Nc3cccc(F)c3)c(=Nc3cccc(C(N)=O)c3)oc12,17.2%
17,O=C(CCN1C(=O)S/C(=C/c2ccc(Cl)cc2)C1=O)N1CCOCC1,-1.83%
18,Cc1cc(C(=O)Nc2ccc(F)cc2F)on1,17.5%
19,Cc1ccc(C(=O)Cn2cc([N+](=O)[O-])nc2C)cc1,2.57%
20,COc1ccc(CCNS(=O)(=O)c2cccs2)cc1,-1.5%
21,CN(C)/C=C(\C#N)c1nc2ccccc2[nH]1,0.759%
22,Cc1nn(Cc2ccccc2Cl)c(Cl)c1C(=O)OC(C(=O)NC(N)=O)C(C)C (centres unmarked),4.02%
23,CN(C)c1cccc(C(=O)OCC(=O)Nc2ccccc2Cl)c1,17.9%

row,SMILES,"hERG current change (%, negative = inhibition) at 10uM"
1,CCOc1ccc(-c2cc(C(=O)N/N=C/c3ccc(O)cc3)c3ccccc3n2)cc1,4.93%
2,OC(CNCC1CCCCC1)COc1ccccc1 (centres unmarked),-0.428%
3,CCn1c2ccccc2c2nnc(SCC(=O)Nc3ncccn3)nc21,-12.1%
4,Cc1ccc(C2C(C(=O)c3cc4ccccc4o3)=C(O)C(=O)N2CCN2CCOCC2)o1 (centres unmarked),8%
5,Cc1cc(-c2nnc(SCC(=O)c3ccc(F)cc3)o2)no1,17.2%
6,Cc1ccc(N2CCN(c3ccc(C)cc3)C2c2cccnc2)cc1,17.6%
7,CCOC(=O)c1c(C)n(-c2ccccc2)c2ccc(OCCN(C)C)cc12,-10.6%
8,CC(C)Cn1c(=O)c2c(nc3n2CCCN3Cc2ccccc2)n(C)c1=O,-50%
9,Brc1ccc(C2CC(c3ccccc3)=Nc3ccccc3N2)cc1 (centres unmarked),13.6%
10,O=C(Nc1cccnc1)c1cccc(S(=O)(=O)N2CCCCC2)c1,5.67%
11,NC(=O)C1CCN(CC(=O)Nc2nccs2)CC1,10.9%
12,Cc1nc(Cc2ccc(OC(C)C)cc2)[nH]c(=O)c1CC(=O)O,11%
13,[O-]/[N+](=C\c1ccncc1)c1ccccc1,-3.2%
14,Cn1cnnc1SCc1ccc(C(=O)N/N=C(\CCC(=O)O)c2ccc(C(C)(C)C)cc2)cc1,-13.3%
15,O=C1CCc2cc(S(=O)(=O)N3CCC(C(=O)Nc4nccs4)CC3)ccc2N1,4.1%
16,CC(C)CNC(=O)c1c(F)c(F)c(F)c(F)c1F,10.7%
17,Oc1c(Cl)c(Cl)c(Cl)c(Cl)c1Cl,31.2%
18,CCN1CCCC1CNC(=O)CSc1cc(=O)n(CC)c2ccccc12 (centres unmarked),-5.04%
19,COc1ccc(N2CCN(c3ncnc4nc[nH]c34)CC2)cc1,11%
20,CCCCC(=O)N(Cc1ccc(F)cc1)C1CCS(=O)(=O)C1 (centres unmarked),-8.15%
21,COC(=O)c1ccccc1COn1c(=O)c(C)[n+]([O-])c2ccccc21,5.48%
22,CC1CCN(S(=O)(=O)c2ccc3c(c2)N(CC(=O)NCCCN2C(C)CCCC2C)C(=O)CO3)CC1 (centres unmarked),17.3%
23,CC(C)(CNC(=O)c1cccs1)N1CCOCC1,-15.4%

row,SMILES,"hERG current change (%, negative = inhibition) at 10uM"
1,Cc1ccc2nc(N3CCN(C(=O)c4ccco4)CC3)sc2c1,-32%
2,CN(CCCC(=O)NCCc1ccccc1)S(=O)(=O)c1ccc([N+](=O)[O-])cc1,-37.6%
3,CCOC(=O)C1(CCOc2ccccc2)CCN(Cc2ccccc2OC)CC1,-71.4%
4,COc1ccc(Cl)cc1N/C(N)=N/c1nc(C)cc(=O)[nH]1,20%
5,CCOc1cc(C(=O)Nc2cnccn2)cc(OCC)c1OCC,-8.85%
6,S=c1[nH]nc(COc2ccccc2)n1/N=C/c1cccs1,0.38%
7,CC(C(=O)Nc1ccc2c(c1)OCCO2)c1ccc([N+](=O)[O-])cc1 (centres unmarked),1.87%
8,CCc1ccc(N2C(=O)CC(N3CCN(c4ccccn4)CC3)C2=O)cc1 (centres unmarked),-6.78%
9,Cc1cc(=O)oc2cc(NC(=O)C3CCCC3)ccc12,10%
10,O=C(/C=C\NCC(=O)c1ccccc1)c1ccc(F)cc1,-6.81%
11,CCNC(=S)N(CCc1c(C)[nH]c2ccc(OC)cc12)Cc1cccnc1,-2.22%
12,Cc1ccc(S(=O)(=O)N(C)CC(=O)Nc2cc(C)ccn2)cc1,-10.9%
13,CCC(C)C(=O)Nc1nc2ccc(S(C)(=O)=O)cc2s1 (centres unmarked),8.05%
14,Cc1ccc(S(=O)(=O)NCc2cc(=O)n(C)c(=O)n2C)cc1C,23.2%
15,CCCCOC(=O)Cn1c(=O)c2c(nc3n2CCCCN3c2ccc(C)cc2)n(C)c1=O,-52.8%
16,Cc1ccc(NC(=O)Cc2nnc(SCC(=O)NC3CCCC3)n2C)cc1C,2.33%
17,Cl.OC(CN1CCN(c2cccc(Cl)c2)CC1)C(c1ccccc1)c1ccccc1 (centres unmarked),-15.2%
18,Cc1ccc2nc(NC(=O)CSc3nc4ccccc4o3)sc2c1,14.4%
19,COc1ccc(N2CCN(C(=O)C(=O)c3c(C)n(C)c4ccccc34)CC2)cc1,10.4%
20,Cc1sc2ncnc(Sc3nnnn3-c3ccc(Cl)cc3)c2c1C,11.2%
21,CCO[C@@H]1OC(C(=O)N2CCN(Cc3ccccc3)CC2)=C[C@H](C)[C@H]1CCCO,3.35%
22,CCC(CO)(CO)N(CC(=O)Nc1ccc(OC)cc1)CC(=O)Nc1ccc(OC)cc1,17%
23,CNC(=O)C1CCN(S(=O)(=O)c2c(C)noc2/C=C/c2cccc(OC)c2)CC1,-2.01%

row,SMILES,"hERG current change (%, negative = inhibition) at 10uM"
1,COc1ccc(C(=O)Nc2ccccc2C(=O)N2CCCCC2C)cc1 (centres unmarked),1.6%
2,CCN(CC(=O)Nc1ccccc1C(F)(F)F)C(=O)c1cc(-c2cccs2)nn1-c1ccccc1,-1.42%
3,Cc1ccc(OCC(=O)NNC(=O)CCc2ccccc2)cc1,2.22%
4,O=[N+]([O-])c1cccc(-c2nnc(-c3ccc4c(c3)OCO4)o2)c1,-2.42%
5,Fc1ccc(Nc2nnns2)cc1,18.2%
6,Cc1cc(C)nc(N/N=C/c2ccccc2OCC(=O)O)n1,16.3%
7,O=C(O)c1ccc(NC(CSCc2ccccc2F)C(=O)O)c([N+](=O)[O-])c1 (centres unmarked),5.64%
8,Cl.O=C(CCS(=O)(=O)c1ccccc1)N(CCCN1CCOCC1)c1nc2ccc(F)cc2s1,-28%
9,Cc1ccccc1OCCC(=O)OCC(=O)N(C)c1c(N)n(Cc2ccccc2)c(=O)[nH]c1=O,8.18%
10,CCCN(CCC)CCCNC(=O)c1cc2cc3ccc(OC)cc3nc2o1,-52.8%
11,COc1ccc(-c2cc(-c3ccco3)[nH]c(=O)c2C#N)cc1OC,3.6%
12,O=C(CSc1nnc(-c2ccc(Br)cc2)n1CCc1ccccc1)NC1CCS(=O)(=O)C1 (centres unmarked),-86.8%
13,O=C(O)CN1C(=O)SC(Nc2ccccc2)C1=O (centres unmarked),-7.83%
14,COc1ccc2oc(C(=O)OC(C)C(=O)NCc3ccccc3)c(C)c2c1 (centres unmarked),5.77%
15,O=C(NCCC1=CCCCC1)C(=O)NCc1ccncc1,7.85%
16,O=C(CSc1ccc(-c2ccccn2)nn1)NCc1ccc(F)cc1,-17.2%
17,COc1ccc(N(CC(=O)Nc2cc(OC)ccc2OC)S(C)(=O)=O)cc1,-15.1%
18,Cc1ccc(C2=NS(=O)(=O)N(C)C(C(=O)N3CCCCC3)=C2)cc1,-19.2%
19,N#Cc1nc(-c2ccco2)oc1N1CCC(C(N)=O)CC1,-5.43%
20,Cc1c(C(=O)N2CCOCC2)c(S(=O)(=O)Nc2cccc(F)c2)c(C)n1C,3.02%
